Results as given in PMC9443850, “There is no F in APC: Using physiological fluoride-free solutions for high throughput automated patch clamp experiments” (Frontiers in Molecular Neuroscience, 2022).
Where two headings read alike, the source gives them in different places.

Experiments:
[1] = biological target: KCa3.1 (SK4) expressed in CHO cells (Homo sapiens, UniProt O15554); experiment: KCa3.1 current, voltage ramp, automated patch clamp (SyncroPatch 384), internal perfusion of free Ca2+ / external Ba2+; details: for IC50: read-out: IC50 for external Ba2+, 4X chips, mean of 2 chips ± S.D.; for EC50: read-out: EC50 for internal free Ca2+, mean ± S.E.M.
[2] = biological target: NaV1.5 expressed in CHO cells (Homo sapiens, UniProt Q14524); experiment: NaV1.5 peak current, automated patch clamp (SyncroPatch 384), 3-step protocol and activation/inactivation IV; details: both standard and fluoride-free internal solution

With `[Ba+2]` [Ba^2+] the IC50 ([1]; fluoride-free internal solution, -120 mV) was 158 ± 15 µM, the IC50 ([1]; standard internal solution, -120 mV) was 170 ± 8 µM and the “increase of IC50 at 60 mV vs -120 mV” value ([1]; standard and fluoride-free internal solution) was roughly 3 fold.

For `CCCCNc1ccc(C(=O)OCCN(C)C)cc1` [Tetracaine], the “decrease of IC50 from holding potential -120 mV compared with -100 and -80 mV” value [2] was 4–7 fold.

`[Ca+2]` [Ca^2+] showed an EC50 ([1]; fluoride-free internal solution, 60 mV, n = 121) of 635 ± 20 nM, an EC50 ([1]; fluoride-free internal solution, -120 mV, n = 121) of 676 ± 22 nM and an EC50 ([1]; standard internal solution, 60 mV, n = 66) of 808 ± 50 nM. The EC50 ([1]; standard internal solution, -120 mV, n = 66) was 773 ± 44 nM.
